# In paper PMC4336329 (PLoS ONE, 2015):
# About 2,200 (0.71%) of roughly 310,000 compounds showed an effect of 50% or more. Effects have a minus sign here. Some of the results follow.
# Target: human ether-à-go-go-related gene (hERG) potassium channel (human, UniProt Q12809)
# Test: primary screen, population patch clamp on CHO cells stably expressing hERG
# human ether-à-go-go-related gene (hERG) potassium channel, sequence (Q12809 whole entry, looked up): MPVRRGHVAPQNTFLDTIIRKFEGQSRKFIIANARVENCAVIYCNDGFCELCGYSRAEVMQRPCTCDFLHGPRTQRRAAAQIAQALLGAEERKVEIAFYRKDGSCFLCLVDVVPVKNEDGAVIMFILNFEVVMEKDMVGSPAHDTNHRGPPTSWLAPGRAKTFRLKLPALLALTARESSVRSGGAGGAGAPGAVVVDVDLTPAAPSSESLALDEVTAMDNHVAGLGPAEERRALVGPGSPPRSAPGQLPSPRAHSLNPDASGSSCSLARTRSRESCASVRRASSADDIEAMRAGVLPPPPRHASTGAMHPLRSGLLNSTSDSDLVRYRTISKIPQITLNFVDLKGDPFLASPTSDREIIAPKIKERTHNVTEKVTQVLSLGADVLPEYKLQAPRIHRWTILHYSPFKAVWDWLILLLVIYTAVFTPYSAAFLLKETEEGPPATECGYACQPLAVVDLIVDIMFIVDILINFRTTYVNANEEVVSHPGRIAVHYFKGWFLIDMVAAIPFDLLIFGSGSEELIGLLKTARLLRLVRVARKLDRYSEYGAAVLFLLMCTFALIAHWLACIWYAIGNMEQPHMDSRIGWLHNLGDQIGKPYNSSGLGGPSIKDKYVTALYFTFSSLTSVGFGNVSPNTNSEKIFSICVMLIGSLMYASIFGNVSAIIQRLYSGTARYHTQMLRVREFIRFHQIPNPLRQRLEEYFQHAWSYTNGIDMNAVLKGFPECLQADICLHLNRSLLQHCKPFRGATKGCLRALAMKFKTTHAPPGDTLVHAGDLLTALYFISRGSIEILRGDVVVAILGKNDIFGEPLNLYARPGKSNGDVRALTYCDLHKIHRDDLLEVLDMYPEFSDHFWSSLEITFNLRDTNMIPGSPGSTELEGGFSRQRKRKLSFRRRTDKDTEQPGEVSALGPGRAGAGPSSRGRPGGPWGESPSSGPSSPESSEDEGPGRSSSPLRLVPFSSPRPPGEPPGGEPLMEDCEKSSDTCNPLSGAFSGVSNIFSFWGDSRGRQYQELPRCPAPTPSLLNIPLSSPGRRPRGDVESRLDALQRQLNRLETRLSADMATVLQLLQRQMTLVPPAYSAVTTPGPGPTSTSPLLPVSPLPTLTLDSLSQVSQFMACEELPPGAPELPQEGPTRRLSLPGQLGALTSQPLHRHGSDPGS
row,Compound,"hERG current change (%, negative = inhibition) at 1uM [%]"
1,CCOC(=O)C1=C(CSc2nc3c(cc2C#N)CN(C)CC3)OC(N)=C(C#N)C1c1ccc(Cl)cc1 (stereo not shown),8.12
2,Cc1ccc(Cl)c(OCCCN(C)Cc2ccccc2)c1.O=C(O)C(=O)O,11.9
3,COCCN(C(=O)CNC(=O)c1ccco1)C(C(=O)NC1CCCC1)c1ccccc1 (stereo not shown),0.176
4,O=C(COc1ccc(S(=O)(=O)NC2CCCCC2)cc1)Nc1ccc2c(c1)OCCO2,1.12
5,CC1CCCCC1N=C1NC(C)(C)CS1 (stereo not shown),16
6,Cn1cc(P(=S)(N2CCOCC2)N2CCOCC2)cc1P(=O)(N1CCOCC1)N1CCOCC1,3.24
7,CNC(=O)c1c(NC(=O)c2ccc(S(=O)(=O)N3CC(C)OC(C)C3)cc2)sc2c1CCN(C(C)C)C2 (stereo not shown),5.05
8,CCCCC1(C)OC(=O)C(=Cc2ccc(N(C)C)cc2)C(=O)O1 (stereo not shown),5.59
9,COc1ccc(C(C)(C)C)cc1NC(=O)c1ccc2ncsc2c1,9.11
10,O=C(c1ccccc1)c1ccc(Cn2cc(CCCO)nn2)cc1,3.41
11,CCCCCOC(=O)Nc1nnc(CCC)s1,-1.67
12,COCCCNC(=O)CNC(=O)c1nn(-c2ccc(OC)c(Cl)c2)c(=O)c2ccccc12,11.4
13,C/C(=N\Nc1ccccc1C)c1cccnc1.Cl,10
14,O=c1/c(=C/c2ccco2)sc2n1CN(c1ccccc1)CN=2,3.87
15,CCCCNC(=O)COn1nnc2ccc(S(=O)(=O)N3CCOCC3)cc21,-1.01
16,COc1cc(CNc2cccc3[nH]c(C(F)(F)F)nc23)cc(OC)c1.Cl,10.2
17,OCC[C@H]1C[C@H](O)[C@@H](O)[C@@]2(Cc3ccccc3CCO2)O1,6.12
18,Fc1ccc(OCc2nn3c(Cn4nnc5ccccc54)nnc3s2)cc1,8.94
19,O=C(O)CN1C(=O)/C(=C\c2cccc(OCc3ccccc3F)c2)SC1=S,10.4
20,Cc1ccc(CN(Cc2ccccc2)C(=S)Nc2ccccc2C)o1,6
21,O=C(CNC(=S)N(Cc1ccccc1)Cc1cccnc1)NC1CCCC1,11
22,CN(CC(=O)Nc1cccc(F)c1)C(=O)C1CC(=O)N(CCc2ccccc2)C1 (stereo not shown),11.3

row,Compound,"hERG current change (%, negative = inhibition) at 1uM [%]"
1,COc1ccccc1-c1noc(CCC(=O)Nc2cccc(C(F)(F)F)c2)n1,0.451
2,O=C(NCc1n[nH]c(=S)n1-c1cccc(Cl)c1)c1cccs1,9.04
3,CS(=O)(=O)N(Cc1ccc(Cl)cc1)c1ccc(C(=O)NCCSc2ccccn2)cc1,-0.841
4,COc1ccc2nc(N3CCC(O)CC3)c(C#N)cc2c1,11.2
5,CC(=O)Oc1ccccc1N(C(C)=O)S(=O)(=O)c1cccc([N+](=O)[O-])c1,15.4
6,CN1CCN(C(=O)C2=C[C@@H](c3ccc(C(F)(F)F)cc3)C[C@@H](OCc3ccc(CO)cc3)O2)CC1,1.47
7,N/N=C(/Cc1nc2ccccc2[nH]1)c1ccc([N+](=O)[O-])cc1,-7.88
8,COCc1[nH][nH]c(=O)c1C=Nc1ccccc1,13.4
9,CCOc1ccc(N2CC(C(=O)Nc3cccnc3)CC2=O)cc1 (stereo not shown),1.94
10,CCCCCn1c(CNC(C)=O)nc2ccccc21,6.45
11,CS(=O)(=O)Nc1ccccc1C(=O)NCCSc1ccc(Cl)cc1,14.4
12,O=C(NC1CCN(Cc2ccc(Cl)c(Cl)c2)CC1)c1ccccc1,10.8
13,Br.Cc1nc(C)c(-c2csc(Nc3ccc(N)cc3)n2)s1,11.4
14,CCC1CCCCN1CCCNC(=O)CCCOc1cc(=O)n(C)c2ccccc12 (stereo not shown),2.23
15,N#Cc1c2n(c3c(=O)n(Cc4ccccc4)cnc13)CCCC2,-8.46
16,CCOc1ccc(-n2c(Cc3cc(=O)[nH]c(=O)[nH]3)nnc2SCC)cc1,-5.41
17,CN(Cc1ccccc1)c1cc(Cl)nc(N)n1,4.94
18,O=C(CSc1nnc(-c2ccco2)n1Cc1ccco1)NCc1cccs1,-13.3
19,COc1ccc(NC(=O)NCc2ccco2)c(OC)c1,4.02
20,Cc1ccc(CN2C(=O)C(C)Nc3ncnc(N4CCN(c5ccccn5)CC4)c32)cc1.O=C(O)C(F)(F)F (stereo not shown),-14.5
21,CCOC(=O)CC(=O)CSc1nc2c(sc(=S)n2-c2ccc(OCC)cc2)c(=O)[nH]1,6.59
22,CCN(CC(=O)Nc1ccc2c(c1)OCCO2)CC(=O)Nc1cc(C)on1,12.2

row,Compound,"hERG current change (%, negative = inhibition) at 1uM [%]"
1,CN(C)S(=O)(=O)c1ccc(C(=O)Nc2nnc(-c3ccco3)o2)cc1,7.49
2,O=[N+]([O-])c1ccc2nc(-c3ccccc3)cc(-c3ccccc3)c2c1,3.23
3,Fc1ccc(COc2ccccc2C(=S)N2CCCC2)cc1,5.21
4,COc1ccccc1Cn1c(=S)[nH]c2cc(C(=O)N3CCN(C)CC3)ccc2c1=O,-1.36
5,COc1ccccc1C(=O)NC(CCSC)C(=O)OC(C)C(=O)NC1CC1 (stereo not shown),14.7
6,COc1ccccc1-n1cc2ccc([N+](=O)[O-])cc2n1,14.2
7,CCC(=O)N(Cc1ccco1)Cc1cc2cccc(C)c2n2nnnc12,12
8,COc1cc2ccccc2cc1C(=O)N1CCN(C(C)=O)CC1,17.9
9,CN(CC(=O)Nc1ccc(F)c(F)c1F)C(=O)C1CSC2(C)CCC(=O)N12 (stereo not shown),3.68
10,COc1ccc(CNc2ccc3c(c2)nc(C)n3C)cc1OC,8.81
11,Cc1ccc(OCC(=O)N/N=C\c2ccc(C)o2)c(C)c1,15.7
12,COc1ccc(N2C(=O)CC(Sc3n[nH]c(-c4cccc(C)c4)n3)C2=O)cc1 (stereo not shown),2.84
13,CCSc1ccc(C(=O)Nc2ccc(Br)cn2)cc1[N+](=O)[O-],9.04
14,Cc1nc2cc(C(=O)N3CCC4(CC3)OCCO4)ccc2n1-c1cccc(F)c1,0.652
15,CCCC(=O)Nc1cc(C)c(NC(=O)c2ccncc2)cn1,-7.02
16,COc1ccc(NC(=O)COc2ccccc2C)cc1S(=O)(=O)N1CCCCC1,7.79
17,CCS(=O)(=O)N1CCN(c2c(Cl)cccc2[N+](=O)[O-])CC1,-3.15
18,CC(=O)Oc1cccc(C(=O)Nc2ccccc2C(=O)N2CCCC2)c1,25.1
19,CN(C)S(=O)(=O)c1ccc(C(=O)NNc2nc(-c3ccccc3)c3cc(Br)ccc3n2)cc1,8.18
20,CCOc1ccc(CNC(=O)c2ccccc2NC(=O)C2=CSCCO2)cc1,1.32
21,CN(C)c1ccc(C(CNC(=O)COc2ccc(Cl)cc2)N2CCCC2)cc1 (stereo not shown),-8.47
22,CCOC(=O)C(=O)Nc1cc([N+](=O)[O-])ccc1C,8.03

row,Compound,"hERG current change (%, negative = inhibition) at 1uM [%]"
1,Cc1ccc(NC(=O)N2CCCCCC2)c(C)c1,13
2,COc1cccc(NC(=O)CN2CCCCCC2)c1.Cl,16.3
3,O=C(c1ccncc1)N(c1ccc2oc3c(c2c1)CCCC3)S(=O)(=O)c1ccc(F)cc1,13.4
4,COC(=O)c1c(NC(=O)C2CC2)sc2c1CCCC2,11.6
5,COc1cc(CN/C(C)=C(\C#N)C(N)=O)cc(OC)c1OC,16.8
6,Cc1ccc(OCCOC(=O)c2nc3nccc(C)n3n2)cc1,11.2
7,C/C(=N\NC(=O)c1cc(C)nc2ccccc12)c1ccncc1,7.78
8,CCO[C@@H]1OC(C(=O)NCc2nc3ccccc3[nH]2)=C[C@H](C2CC2)[C@H]1CCCO,7.06
9,COC(=O)c1ccc(C2/C(=C(\O)c3ccc4c(c3)OCCO4)C(=O)C(=O)N2CCCN(C)C)cc1 (stereo not shown),-5.58
10,O=C(Nc1ccccc1)Nc1ccc2c(c1)CCC2,17.6
11,O=C1CN(c2ccc(F)cc2)C(=S)N1c1ccccc1,15
12,Cc1ccccc1C(=O)NC(CC(C)C)C(=O)Nc1ccc(F)c([N+](=O)[O-])c1 (stereo not shown),10
13,CCSc1n[nH]c(=S)s1,15.7
14,COc1ccc(/C=N/NC(=O)/C(=C/c2ccccc2)CCO)cc1,11.7
15,CCOC(=O)C1SC2(C(F)F)CC1(O)c1c(c(OC)c3occc3c1OC)O2 (stereo not shown),12.1
16,CCCCCC(=O)N/N=C/c1cccs1,16.8
17,CN(C)/C=C(/C(=O)c1ccc(Cl)cc1)S(=O)(=O)c1ccc(Cl)cc1,-10.9
18,CN1C(=O)CC(N2CCC(c3nc4ccccc4s3)CC2)C1=O (stereo not shown),0.992
19,COc1ccc(-c2[nH]ncc2/C=N/NC(=O)c2cccc([N+](=O)[O-])c2)cc1OC,-25.5
20,O=C1c2ccccc2C(O)(c2ncc[nH]2)N1C1CCCCC1 (stereo not shown),19.1
21,O=C(O)CC(C(=O)NCc1ccccc1)C1CCCO1 (stereo not shown),-2.32
22,NS(=O)(=O)c1ccc(NC(=O)COC(=O)c2cc3ccccc3cc2O)cc1,16.3
